# In the supplement of paper PMC8728848:
# The list shows a part of the results.
# Columns and labels:
# Test in all cases: glycan array binding signal (z-score within array); higher = stronger binding
# Settings in all cases: glycan notation: IUPAC condensed, linker removed
# [1] = target: Gal(b1-4)GlcNAc(b1-3)Gal(b1-4)GlcNAc(b1-3)Gal(b1-4)GlcNAc(b1-3)Gal(b1-4)GlcNAc(b1-2)Man(a1-3)[Gal(b1-4)GlcNAc(b1-3)Gal(b1-4)GlcNAc(b1-3)Gal(b1-4)GlcNAc(b1-3)Gal(b1-4)GlcNAc(b1-2)Man(a1-6)]Man(b1-4)GlcNAc(b1-4)[Fuc(a1-6)]GlcNAc
# How it was run: (§1)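 The binding signal is a Z-score computed within each array and averaged over linkers. Arrays of the same protein sequence at different concentrations or buffers were also averaged together. Data originate from 3228 arrays in the Consortium for Functional Glycomics database, kept only where the protein sequence was available.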
# [2] = target: Gal(b1-4)GlcNAc(b1-3)Gal(b1-4)GlcNAc(b1-3)Gal(b1-4)GlcNAc(b1-3)Gal(b1-4)GlcNAc(b1-2)[Gal(b1-4)GlcNAc(b1-3)Gal(b1-4)GlcNAc(b1-3)Gal(b1-4)GlcNAc(b1-3)Gal(b1-4)GlcNAc(b1-6)]Man(a1-6)[Gal(b1-4)GlcNAc(b1-3)Gal(b1-4)GlcNAc(b1-3)Gal(b1-4)GlcNAc(b1-3)Gal(b1-4)GlcNAc(b1-2)Man(a1-3)]Man(b1-4)GlcNAc(b1-4)[Fuc(a1-6)]GlcNAc
# How it was run: as §1
# [3] = target: Gal(b1-4)GlcNAc(b1-3)Gal(b1-4)GlcNAc(b1-3)Gal(b1-4)GlcNAc(b1-3)Gal(b1-4)GlcNAc(b1-3)Gal(b1-4)GlcNAc(b1-2)Man(a1-3)[Gal(b1-4)GlcNAc(b1-3)Gal(b1-4)GlcNAc(b1-3)Gal(b1-4)GlcNAc(b1-3)Gal(b1-4)GlcNAc(b1-3)Gal(b1-4)GlcNAc(b1-2)Man(a1-6)]Man(b1-4)GlcNAc(b1-4)GlcNAc
# How it was run: as §1
# [4] = target: Gal(b1-4)GlcNAc(b1-3)Gal(b1-4)GlcNAc(b1-3)Gal(b1-4)GlcNAc(b1-3)Gal(b1-4)GlcNAc(b1-3)Gal(b1-4)GlcNAc(b1-2)Man(a1-3)[Gal(b1-4)GlcNAc(b1-3)Gal(b1-4)GlcNAc(b1-3)Gal(b1-4)GlcNAc(b1-3)Gal(b1-4)GlcNAc(b1-3)Gal(b1-4)GlcNAc(b1-2)Man(a1-6)]Man(b1-4)GlcNAc(b1-4)[Fuc(a1-6)]GlcNAc
# How it was run: as §1
# [5] = target: Gal(b1-4)GlcNAc(b1-3)Gal(b1-4)GlcNAc(b1-3)Gal(b1-4)GlcNAc(b1-3)Gal(b1-4)GlcNAc(b1-3)Gal(b1-4)GlcNAc(b1-2)[Gal(b1-4)GlcNAc(b1-3)Gal(b1-4)GlcNAc(b1-3)Gal(b1-4)GlcNAc(b1-3)Gal(b1-4)GlcNAc(b1-3)Gal(b1-4)GlcNAc(b1-6)]Man(a1-6)[Gal(b1-4)GlcNAc(b1-3)Gal(b1-4)GlcNAc(b1-3)Gal(b1-4)GlcNAc(b1-3)Gal(b1-4)GlcNAc(b1-3)Gal(b1-4)GlcNAc(b1-2)Man(a1-3)]Man(b1-4)GlcNAc(b1-4)[Fuc(a1-6)]GlcNAc
# How it was run: as §1
# [6] = target: Gal(b1-4)GlcNAc(b1-3)Gal(b1-4)GlcNAc(b1-3)Gal(b1-4)GlcNAc(b1-3)Gal(b1-4)GlcNAc(b1-3)Gal(b1-4)GlcNAc(b1-3)Gal(b1-4)GlcNAc(b1-2)Man(a1-3)[Gal(b1-4)GlcNAc(b1-3)Gal(b1-4)GlcNAc(b1-3)Gal(b1-4)GlcNAc(b1-3)Gal(b1-4)GlcNAc(b1-3)Gal(b1-4)GlcNAc(b1-3)Gal(b1-4)GlcNAc(b1-2)Man(a1-6)]Man(b1-4)GlcNAc(b1-4)GlcNAc
# How it was run: as §1
# [7] = target: Gal(b1-4)GlcNAc(b1-3)Gal(b1-4)GlcNAc(b1-3)GalNAc
# How it was run: as §1
# [8] = target: Gal(b1-4)GlcNAc(b1-3)Gal(b1-4)GlcNAc(b1-3)[Gal(b1-4)GlcNAc(b1-3)Gal(b1-4)GlcNAc(b1-6)]GalNAc
# How it was run: as §1
# [9] = target: Gal(b1-4)GlcNAc(b1-3)Gal(b1-4)GlcNAc(b1-6)[Gal(b1-3)]GalNAc
# How it was run: as §1
# [10] = target: Gal(b1-4)GlcNAc(b1-3)Gal(b1-4)[Fuc(a1-3)]GlcNAc(b1-3)Gal(b1-4)[Fuc(a1-3)]GlcNAc
# How it was run: as §1
# [11] = target: Gal(b1-4)GlcNAc(b1-3)GalNAc
# How it was run: as §1
# [12] = target: Gal(b1-4)GlcNAc(b1-3)[Fuc(a1-3)GlcNAc(b1-6)]Gal(b1-4)Glc
# How it was run: as §1
# [13] = target: Gal(b1-4)GlcNAc(b1-3)[Gal(b1-4)GlcNAc(b1-6)]Gal(b1-4)GlcNAc
# How it was run: as §1
# [14] = target: Gal(b1-4)GlcNAc(b1-3)[GlcNAc(b1-6)]Gal(b1-4)GlcNAc
# How it was run: as §1
# [15] = target: Gal(b1-4)GlcNAc(b1-6)Gal(b1-4)GlcNAc
# How it was run: as §1
# [16] = target: Gal(b1-4)GlcNAc(b1-6)GalNAc
# How it was run: as §1
# [17] = target: Gal(b1-4)GlcNAc(b1-6)[Gal(b1-3)]GalNAc
# How it was run: as §1
# [18] = target: Gal(b1-4)GlcNAc(b1-6)[Gal(b1-4)GlcNAc(b1-3)]GalNAc
# How it was run: as §1
# [19] = target: Gal(b1-4)GlcNAc6P
# How it was run: as §1
# [20] = target: Gal(b1-6)Gal
# How it was run: as §1
# [21] = target: Gal3S(b1-3)GalNAc
# How it was run: as §1
# [22] = target: Gal3S(b1-3)GlcNAc
# How it was run: as §1
# [23] = target: Gal3S(b1-3)[Fuc(a1-4)]GlcNAc
# How it was run: as §1
binder,measurement,setting,value
EULS2 M2 (Oryza sativa) (protein) MVYCRANPNYAMTARNGAVVLAPANPKDEYQHWIKDMRWSTSIKDEEGYPAFALVNKATGQAIKHSLGQSHPVRLVPYNPEVMDESVLWTESRDVGNGFRCIRMVNNIYLNFDAFHGDKYHGGVRDGTDIVLWKLCEGDSQRWKIQPYYILEQKLISEEDLNSAVDHHHHHH,glycan array binding signal (z-score),[1],0.099
same,glycan array binding signal (z-score),[2],0.194
same,glycan array binding signal (z-score),[3],2.79
same,glycan array binding signal (z-score),[4],0.066
same,glycan array binding signal (z-score),[5],-0.103
same,glycan array binding signal (z-score),[6],1.06
same,glycan array binding signal (z-score),[7],-0.414
same,glycan array binding signal (z-score),[8],-0.129
same,glycan array binding signal (z-score),[9],-0.28
same,glycan array binding signal (z-score),[10],-0.355
same,glycan array binding signal (z-score),[11],-0.649
same,glycan array binding signal (z-score),[12],-0.485
same,glycan array binding signal (z-score),[13],-0.297
same,glycan array binding signal (z-score),[14],-0.542
same,glycan array binding signal (z-score),[15],-0.692
same,glycan array binding signal (z-score),[16],-0.343
same,glycan array binding signal (z-score),[17],0.142
same,glycan array binding signal (z-score),[18],-0.205
same,glycan array binding signal (z-score),[19],-0.459
same,glycan array binding signal (z-score),[20],0.255
same,glycan array binding signal (z-score),[21],-0.608
same,glycan array binding signal (z-score),[22],-0.359
same,glycan array binding signal (z-score),[23],-0.012
